# Measured values from the supplement of paper PMC8728848.
# The list shows a part of the results.
# B1: Clone730PsrP (Streptococcus pneumoniae) (protein)
# chain: MDHHHHHHHHHHASENLYFQGAMVVGSQTAAATEATAKKVEEDRKKPASDYVASVTNVNLQSYAKRRKRSVDSIEQLLASIKNAAVFSGNTIVNGAPAINASLNIAKSETKVYTGEGVDSVYRVPIYYKLKVTNDGSKLTFTYTVTYVNPKTNDLGNISSMRPGYSIYNSGTSTQTMLTLGSDLGKPSGVKNYITDKNGRQVLSYNTSTMTTQGSGYTWGNGAQMNGFFAKKGYGLTSSWTVPITGTDTSFTFTPYAARTDRIGINYFNGGGKVVESSTT
# What was measured:
# Experiment in all cases: glycan array binding signal (z-score within array); higher = stronger binding
# Conditions in all cases: glycan notation: IUPAC condensed, linker removed
# [1] = target: Neu5Ac(a2-3)Gal(b1-3)GlcNAc(b1-2)Man(a1-3)[GlcNAc(b1-4)][Neu5Ac(a2-3)Gal(b1-3)GlcNAc(b1-2)Man(a1-6)]Man(b1-4)GlcNAc(b1-4)GlcNAc
# Summary of the method: (§1)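 Arrays were curated from the Consortium for Functional Glycomics database, 3228 in total, and kept only where the protein sequence was available. Binding is expressed as a within-array Z-score. This score was averaged across arrays of the same protein sequence at different concentrations or buffers and across linkers, and negative values can be read as non-binding.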
# [2] = target: Neu5Ac(a2-3)Gal(b1-3)GlcNAc(b1-2)Man(a1-3)[Neu5Ac(a2-3)Gal(b1-3)GlcNAc(b1-2)Man(a1-6)]Man(b1-4)GlcNAc(b1-4)GlcNAc
# Summary of the method: as §1
# [3] = target: Neu5Ac(a2-3)Gal(b1-3)GlcNAc(b1-3)Gal(b1-3)GlcNAc
# Summary of the method: as §1
# [4] = target: Neu5Ac(a2-3)Gal(b1-3)GlcNAc(b1-3)Gal(b1-4)GlcNAc
# Summary of the method: as §1
# [5] = target: Neu5Ac(a2-3)Gal(b1-3)GlcNAc(b1-3)GalNAc
# Summary of the method: as §1
# [6] = target: Neu5Ac(a2-3)Gal(b1-3)GlcNAc(b1-4)Gal(b1-4)Glc
# Summary of the method: as §1
# [7] = target: Neu5Ac(a2-3)Gal(b1-3)GlcNAc(b1-6)GalNAc
# Summary of the method: as §1
# [8] = target: Neu5Ac(a2-3)Gal(b1-3)GlcNAc6S
# Summary of the method: as §1
# [9] = target: Neu5Ac(a2-3)Gal(b1-3)[Fuc(a1-4)]GlcNAc
# Summary of the method: as §1
# [10] = target: Neu5Ac(a2-3)Gal(b1-3)[Fuc(a1-4)]GlcNAc(b1-3)Gal(b1-3)[Fuc(a1-4)]GlcNAc
# Summary of the method: as §1
# [11] = target: Neu5Ac(a2-3)Gal(b1-3)[Fuc(a1-4)]GlcNAc(b1-3)Gal(b1-4)[Fuc(a1-3)]GlcNAc
# Summary of the method: as §1
# [12] = target: Neu5Ac(a2-3)Gal(b1-3)[GlcNAc(b1-6)]GalNAc
# Summary of the method: as §1
# [13] = target: Neu5Ac(a2-3)Gal(b1-3)[Neu5Ac(a2-6)]GalNAc
# Summary of the method: as §1
# [14] = target: Neu5Ac(a2-3)Gal(b1-3)[Neu5Ac(a2-6)]GlcNAc(b1-3)[Fuc(a1-3)[Gal(b1-4)]GlcNAc(b1-6)]Gal(b1-4)Glc
# Summary of the method: as §1
# [15] = target: Neu5Ac(a2-3)Gal(b1-3)]Neu5Ac(a2-3)Gal(b1-4)]GlcNAc
# Summary of the method: as §1
# [16] = target: Neu5Ac(a2-3)Gal(b1-4)Glc
# Summary of the method: as §1
# [17] = target: Neu5Ac(a2-3)Gal(b1-4)GlcNAc
# Summary of the method: as §1
# [18] = target: Neu5Ac(a2-3)Gal(b1-4)GlcNAc(b1-2)Man
# Summary of the method: as §1
# [19] = target: Neu5Ac(a2-3)Gal(b1-4)GlcNAc(b1-2)Man(a1-3)[GlcNAc(b1-4)][Neu5Ac(a2-3)Gal(b1-4)GlcNAc(b1-2)Man(a1-6)]Man(b1-4)GlcNAc(b1-4)GlcNAc
# Summary of the method: as §1
# [20] = target: Neu5Ac(a2-3)Gal(b1-4)GlcNAc(b1-2)Man(a1-3)[Neu5Ac(a2-3)Gal(b1-4)GlcNAc(b1-2)Man(a1-6)]Man(b1-4)GlcNAc(b1-4)GlcNAc
# Summary of the method: as §1
# [21] = target: Neu5Ac(a2-3)Gal(b1-4)GlcNAc(b1-2)Man(a1-3)[Neu5Ac(a2-3)Gal(b1-4)GlcNAc(b1-2)Man(a1-6)]Man(b1-4)GlcNAc(b1-4)[Fuc(a1-6)]GlcNAc
# Summary of the method: as §1
# [22] = target: Neu5Ac(a2-3)Gal(b1-4)GlcNAc(b1-2)Man(a1-3)[Neu5Ac(a2-6)Gal(b1-4)GlcNAc(b1-2)Man(a1-6)]Man(b1-4)GlcNAc(b1-4)GlcNAc
# Summary of the method: as §1
# [23] = target: Neu5Ac(a2-3)Gal(b1-4)GlcNAc(b1-2)[Neu5Ac(a2-3)Gal(b1-4)GlcNAc(b1-4)]Man(a1-3)[GlcNAc(b1-4)][Neu5Ac(a2-3)Gal(b1-4)GlcNAc(b1-2)[Neu5Ac(a2-3)Gal(b1-4)GlcNAc(b1-6)]Man(a1-6)]Man(b1-4)GlcNAc(b1-4)GlcNAc
# Summary of the method: as §1
# [24] = target: Neu5Ac(a2-3)Gal(b1-4)GlcNAc(b1-2)[Neu5Ac(a2-3)Gal(b1-4)GlcNAc(b1-4)]Man(a1-3)[GlcNAc(b1-4)][Neu5Ac(a2-3)Gal(b1-4)GlcNAc(b1-4)Man(a1-6)]Man(b1-4)GlcNAc(b1-4)GlcNAc
# Summary of the method: as §1
# [25] = target: Neu5Ac(a2-3)Gal(b1-4)GlcNAc(b1-2)[Neu5Ac(a2-3)Gal(b1-4)GlcNAc(b1-6)]Man(a1-6)[Neu5Ac(a2-3)Gal(b1-4)GlcNAc(b1-2)Man(a1-3)]Man(b1-4)GlcNAc(b1-4)GlcNAc
# Summary of the method: as §1
# [26] = target: Neu5Ac(a2-3)Gal(b1-4)GlcNAc(b1-2)[Neu5Ac(a2-3)Gal(b1-4)GlcNAc(b1-6)]Man(a1-6)[Neu5Ac(a2-3)Gal(b1-4)GlcNAc(b1-2)Man(a1-3)][GlcNAc(b1-4)]Man(b1-4)GlcNAc(b1-4)GlcNAc
# Summary of the method: as §1
# [27] = target: Neu5Ac(a2-3)Gal(b1-4)GlcNAc(b1-3)Gal
# Summary of the method: as §1
# [28] = target: Neu5Ac(a2-3)Gal(b1-4)GlcNAc(b1-3)Gal(b1-3)GlcNAc
# Summary of the method: as §1
# [29] = target: Neu5Ac(a2-3)Gal(b1-4)GlcNAc(b1-3)Gal(b1-4)GlcNAc
# Summary of the method: as §1
# [30] = target: Neu5Ac(a2-3)Gal(b1-4)GlcNAc(b1-3)Gal(b1-4)GlcNAc(b1-2)Man(a1-3)[Neu5Ac(a2-3)Gal(b1-4)GlcNAc(b1-3)Gal(b1-4)GlcNAc(b1-2)Man(a1-6)]Man(b1-4)GlcNAc(b1-4)GlcNAc
# Summary of the method: as §1
# [31] = target: Neu5Ac(a2-3)Gal(b1-4)GlcNAc(b1-3)Gal(b1-4)GlcNAc(b1-3)Gal(b1-4)GlcNAc
# Summary of the method: as §1
# [32] = target: Neu5Ac(a2-3)Gal(b1-4)GlcNAc(b1-3)Gal(b1-4)GlcNAc(b1-3)Gal(b1-4)GlcNAc(b1-2)Man(a1-3)[Neu5Ac(a2-3)Gal(b1-4)GlcNAc(b1-3)Gal(b1-4)GlcNAc(b1-3)Gal(b1-4)GlcNAc(b1-2)Man(a1-6)]GalNAc
# Summary of the method: as §1
# [33] = target: Neu5Ac(a2-3)Gal(b1-4)GlcNAc(b1-3)Gal(b1-4)GlcNAc(b1-3)GalNAc
# Summary of the method: as §1
# [34] = target: Neu5Ac(a2-3)Gal(b1-4)GlcNAc(b1-3)Gal(b1-4)GlcNAc(b1-3)[Neu5Ac(a2-3)Gal(b1-4)GlcNAc(b1-3)Gal(b1-4)GlcNAc(b1-6)]GalNAc
# Summary of the method: as §1
# [35] = target: Neu5Ac(a2-3)Gal(b1-4)GlcNAc(b1-3)Gal(b1-4)GlcNAc(b1-6)[Gal(b1-3)]GalNAc
# Summary of the method: as §1
# [36] = target: Neu5Ac(a2-3)Gal(b1-4)GlcNAc(b1-3)Gal(b1-4)[Fuc(a1-3)]GlcNAc
# Summary of the method: as §1
# [37] = target: Neu5Ac(a2-3)Gal(b1-4)GlcNAc(b1-3)GalNAc
# Summary of the method: as §1
# [38] = target: Neu5Ac(a2-3)Gal(b1-4)GlcNAc(b1-3)[Neu5Ac(a2-3)Gal(b1-4)GlcNAc(b1-6)]GalNAc
# Summary of the method: as §1
binder,measurement,setting,value
B1,glycan array binding signal (z-score),[1],-0.581
same,glycan array binding signal (z-score),[2],0.657
same,glycan array binding signal (z-score),[3],-0.479
same,glycan array binding signal (z-score),[4],-0.591
same,glycan array binding signal (z-score),[5],-0.389
same,glycan array binding signal (z-score),[6],-0.33
same,glycan array binding signal (z-score),[7],-0.281
same,glycan array binding signal (z-score),[8],0.799
same,glycan array binding signal (z-score),[9],0.489
same,glycan array binding signal (z-score),[10],-0.212
same,glycan array binding signal (z-score),[11],0.277
same,glycan array binding signal (z-score),[12],-0.134
same,glycan array binding signal (z-score),[13],-0.191
same,glycan array binding signal (z-score),[14],-0.372
same,glycan array binding signal (z-score),[15],0.45
same,glycan array binding signal (z-score),[16],1.09
same,glycan array binding signal (z-score),[17],0.638
same,glycan array binding signal (z-score),[18],1.83
same,glycan array binding signal (z-score),[19],-0.507
same,glycan array binding signal (z-score),[20],-0.336
same,glycan array binding signal (z-score),[21],-0.658
same,glycan array binding signal (z-score),[22],-0.561
same,glycan array binding signal (z-score),[23],-0.404
same,glycan array binding signal (z-score),[24],-0.589
same,glycan array binding signal (z-score),[25],-0.261
same,glycan array binding signal (z-score),[26],-0.522
same,glycan array binding signal (z-score),[27],-0.586
same,glycan array binding signal (z-score),[28],-0.639
same,glycan array binding signal (z-score),[29],0.696
same,glycan array binding signal (z-score),[30],-0.173
same,glycan array binding signal (z-score),[31],-0.452
same,glycan array binding signal (z-score),[32],1.38
same,glycan array binding signal (z-score),[33],-0.327
same,glycan array binding signal (z-score),[34],-0.395
same,glycan array binding signal (z-score),[35],-0.073
same,glycan array binding signal (z-score),[36],-0.015
same,glycan array binding signal (z-score),[37],-0.294
same,glycan array binding signal (z-score),[38],-0.146
